Experimental data from the antibiotic and cytotoxicity screens of Wong et al. (2023).
Some of the results follow.

Each compound was assayed on HepG2 (assay: cytotoxicity call (relative viability < 0.9)). Conditions: 10 µM.
With C[C@@H]1CN([C@H](C)CO)C(=O)c2cccc(NS(C)(=O)=O)c2O[C@H]1CN(C)Cc1ccc(C(F)(F)F)cc1 the cytotoxicity call was “inactive”. For C[C@H](NC(=O)N(C)C[C@@H]1OCc2ccccc2-c2c(n(C)c3ccccc23)C(=O)N([C@H](C)CO)C[C@H]1C)c1ccccc1, the cytotoxicity call was “inactive”. With O=C(C[C@H]1NC(=O)NC1=O)NCc1[nH]nc2c1CCC2 the cytotoxicity call was “inactive”. For Cc1ccc(S(=O)(=O)N(C)C[C@@H]2Oc3ccc(NC(=O)Nc4ccc(C(F)(F)F)cc4)cc3CC(=O)N([C@H](C)CO)C[C@H]2C)cc1, the cytotoxicity call was “inactive”. C[C@@H]1CN([C@@H](C)CO)C(=O)Cc2cc(NS(C)(=O)=O)ccc2O[C@H]1CN(C)S(=O)(=O)c1cccs1 was tested, and the cytotoxicity call was “inactive”. In the case of C[C@H](CO)N1C[C@H](C)[C@@H](CN(C)Cc2ccncc2)OCCCC[C@H](C)Oc2ccc(NC(=O)Cc3ccccc3)cc2C1=O, the cytotoxicity call is reported as “inactive”. NC(=O)C[C@H]1Nc2ccccc2NC1=O was tested, and the cytotoxicity call was “inactive”. For CO[C@@H]1CN(C)C(=O)c2ccc(NS(=O)(=O)CC(F)(F)F)cc2OC[C@@H](C)N(C(=O)c2ccc3c(c2)OCO3)C[C@H]1C, the cytotoxicity call was “inactive”. For C[C@@H]1CC[C@@]2(OC1)O[C@H]1C[C@H]3[C@H]4CC=C5C[C@@H](O[C@@H]6O[C@H](CO)[C@@H](O[C@@H]7O[C@@H](C)[C@H](O)[C@@H](O)[C@H]7O[C@@H]7O[C@@H](C)[C@H](O)[C@@H](O)[C@H]7O)[C@H](O)[C@H]6O)CC[C@]5(C)[C@@H]4CC[C@]3(C)[C@H]1[C@@H]2C, the cytotoxicity call was “active”. In the case of C=CCNC(=O)[C@@H]1[C@H]2C(=O)O[C@H](c3ccccc3)[C@H](c3ccccc3)N2[C@H](c2ccc(OCCO)cc2)[C@@]12C(=O)Nc1ccc(C#CC3(O)CCCCCC3)cc12, the cytotoxicity call is reported as “inactive”. Cc1noc(C)c1NC(=O)N(C)C[C@H]1Oc2c(NC(=O)C3CC3)cccc2C(=O)N([C@@H](C)CO)C[C@H]1C was tested, and the cytotoxicity call was “inactive”. With C[C@H](CO)N1C[C@H](C)[C@H](CN(C)S(=O)(=O)c2cn(C)cn2)Oc2ccc(NC(=O)Nc3ccc(F)cc3)cc2C1=O the cytotoxicity call was “inactive”. For C[C@@H]1CCCCO[C@H](CN(C)S(=O)(=O)c2cccs2)[C@H](C)CN([C@@H](C)CO)C(=O)c2cc(NC(=O)CCC(F)(F)F)ccc2O1, the cytotoxicity call was “inactive”. For Cc1ccc(S(=O)(=O)N(C)C[C@@H]2Oc3ccc(NC(=O)C4CC4)cc3CC(=O)N([C@H](C)CO)C[C@@H]2C)cc1, the cytotoxicity call was “inactive”. NC[C@@H]1CCCO1 was tested, and the cytotoxicity call was “inactive”. COc1ccc(NC(=O)N(C)C[C@H]2OCc3ccccc3-c3c(n(C)c4ccccc34)C(=O)N([C@H](C)CO)C[C@H]2C)cc1 was tested, and the cytotoxicity call was “inactive”. For Cc1ccc(S(=O)(=O)N(C)C[C@H]2OCCCC[C@@H](C)Oc3ccc(NC(=O)Nc4c(C)noc4C)cc3C(=O)N([C@@H](C)CO)C[C@H]2C)cc1, the cytotoxicity call was “inactive”.
